Results as given in PubChem BioAssay (Tox21).
“And” between values parts separate entries of the source, which are not always exact repeats. Identical values can stand only once. The inconclusive results got no clear call from the source; some entries with a clear call stand among them for comparison. For some assays here: Potencies of inconclusive entries are doubtful fits and often do not repeat. Some structures have more than one record in an assay (separate samples or runs), and their calls can disagree. The source made the active and inactive calls. Unless noted, the call rests on the fitted dose curve; in most records, active means well fitted curve in the direction sought with a large enough effect in the repeat runs; inconclusive means weak or mixed curves; inactive means no such curve, though single readings can be large; an effect the other way counts as inactive or inconclusive.

Experiments:
[1] = target: Estrogen receptor beta (Homo sapiens) (UniProt Q92731); test: qHTS assay to identify small molecule antagonists of the estrogen receptor beta (ER-beta) signaling pathway (AID 1259378; active means well fitted inhibition curve with a large enough effect in the signal ratio in the repeat runs, not every such curve was filed as active; inconclusive means weak or mixed curves, or effect the other way; inactive means no such curve, though single readings can be large or run the other way; the % refers to the signal ratio; on activity, negative = inhibition: on the % scale 0 is the no-effect control and ±100 the full control effect); details: ER-beta-UAS-bla HEK293T, beta-lactamase FRET ratio, 16 h
In short: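 ER-beta-UAS-bla HEK293T (GripTite) cells in 2% charcoal-stripped FBS medium were preincubated 6 hr at 37C, dosed with compound, then stimulated with 1 nM E2 (final) for 16 hr; beta-lactamase reporter read by B/G FRET fluorescence after 2 hr substrate loading.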

[2] = qHTS assay to identify small molecule agonists or antagonists of the thyroid stimulating hormone receptor (TSHR) signaling pathway - wild type cell line counter screen (AID 1259384; calls by dose curve; on cAMP activity change: on the % scale 0 is the no-effect control and ±100 the full control effect); details: HEK293 wild type, cAMP HTRF counter-screen; cAMP activity change: at 92.4 µM (top of the series), stronger effect = higher value unless noted
In short: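 Wild-type HEK293 cells were plated 18 h at 37 C/5% CO2, pin-dosed with compound plus Ro20-1724 medium, held 30 min at room temperature, then given cAMP-d2 and anti-cAMP-cryptate; fluorescence was read after 1 h. Fifteen concentrations, triplicate.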

[3] = target: Thyrotropin receptor (Homo sapiens) (UniProt P16473); test: qHTS assay to identify small molecule antagonists of the thyroid stimulating hormone receptor (TSHR) signaling pathway (AID 1259385; calls by dose curve; further: nearly all actives have a fitted effect of over 20% in size; on activity change, negative = inhibition: on the % scale 0 is the no-effect control and ±100 the full control effect); details: TSHR-HEK293 cAMP HTRF, TSH-stimulated antagonist mode; activity change, negative = inhibition: at 92.4 µM (top of the series) unless noted
In short: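 TSHR-HEK293 cells were plated and held 18 h at 37C/5% CO2, then given compound plus Ro20-1724 and stimulated with TSH at 1.5 ng/mL final. After 30 min at room temperature, cAMP was detected with cAMP-d2/anti-cAMP-cryptate (1 h) by fluorescence.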

[4] = qHTS assay to identify small molecule agonists of the estrogen receptor alpha (ER-alpha) signaling pathway in the presence of an antagonist - cell viability counter screen (AID 1259386);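 further: cells exposed to compounds for 22 h at 37 °C before the viability read; nearly all actives have a fitted effect of over 30% in size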
In short: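 Cells are starved of estrogens for 5 days in charcoal-stripped serum, seeded for 24hr and co-treated with ICI-182,780 (10.0nM final) and test compounds. After 22hr at 37C, viability is read as CellTiter-Fluor fluorescence.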

[5] = target: Progesterone receptor (Homo sapiens) (UniProt P06401); test: qHTS assay to identify small molecule antagonists of the progesterone receptor (PR) signaling pathway (AID 1346795; active means well fitted inhibition curve with a large enough effect in the signal ratio in the repeat runs, not every such curve was filed as active; inconclusive means weak or mixed curves; the % refers to the signal ratio; on activity change, negative = inhibition: on the % scale 0 is the no-effect control and ±100 the full control effect); details: PR-UAS-bla HEK293T, beta-lactamase FRET ratio, 16 h; activity change, negative = inhibition: at 92.4 µM (top of the series) unless noted
In short: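 PR-UAS-bla HEK293T cells with beta-lactamase reporter under UAS control, in 2% charcoal-stripped FBS, treated with compounds plus 1 nM promegestone (R5020, final) for 16 hr at 37C. Read-out: FRET beta-lactamase substrate fluorescence after 2 hr at room temperature.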

[6] = qHTS assay to identify small molecule antagonists of the TGF-beta/Smad signaling pathway (AID 1346924; active means well fitted inhibition curve with a large enough effect in the signal ratio in the repeat runs, not every such curve was filed as active; inconclusive means weak or mixed curves; the % refers to the signal ratio); details: SBE-bla HEK293T, TGF-beta/Smad reporter, beta-lactamase ratio; activity, negative = inhibition: at 76.8 µM (top of the series) unless noted
In short: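 SBE-bla HEK 293T cells were plated overnight, then received compound in DMSO plus TGF-beta1 (added as a 0.25 ng/mL solution) and were incubated 5 h at 37 C. Beta-lactamase reporter activity was read after 2 h at room temperature with LiveBLAzer B/G FRET substrate (ex 405, em 460/530 nm).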

[7] = qHTS assay to identify small molecule agonists of the androgen receptor (AR) signaling pathway in the presence of an antagonist - cell viability counter screen (AID 1259379); further: nearly all actives have a fitted effect of over 25% in size
In short: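 Fluorescence from CellTiter-Fluor, added after 15 hr and read 1 hr later, gave cell viability. Cells were MDA-kb2 exposed to compounds (15 concentrations) in the presence of 3.0uM nilutamide at 37C, 0% CO2.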

[8] = qHTS assay to identify small molecule agonists of the estrogen receptor beta (ER-beta) signaling pathway - cell viability counter screen (AID 1259380); further: nearly all actives have a fitted effect of over 30% in size
In short: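 Same-well viability counter screen. Cells: ER-beta-UAS-bla HEK293T, plated 6 hr before compound, in 2% charcoal-stripped FBS. Compound exposure 16 hr, 37C; viability by CellTiter-Glo luminescence after 30 min at room temperature.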

[9] = qHTS assay to identify small molecule antagonists of the estrogen receptor beta (ER-beta) signaling pathway - cell viability counter screen (AID 1259382); further: nearly all actives have a fitted effect of over 55% in size
In short: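 Following a 6 hr plating period, HEK293T cells carrying a UAS-driven beta-lactamase reporter under ER-beta control received compounds and 1nM E2 (final). After 16 hr at 37C and 2 hr substrate loading, CellTiter-Glo luminescence indicated viability.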

[10] = qHTS assay to identify small molecule antagonists of the progesterone receptor (PR) signaling pathway - cell viability counter screen (AID 1346798); further: nearly all actives have a fitted effect of over 50% in size
In short: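 PR-UAS-bla HEK293T cells, 3,000/well in 2% charcoal-stripped FBS medium, dosed with compounds plus R5020 agonist and incubated 16 h at 37C. Viability then measured in the same wells by CellTiter-Glo luminescence after 30 min at RT.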

[11] = qHTS assay to identify small molecule agonists of the TGF-beta/Smad signaling pathway (AID 1346859; active means well fitted activation curve with a large enough effect in the signal ratio in the repeat runs, not every such curve was filed as active; inconclusive means weak or mixed curves; the % refers to the signal ratio); details: SBE-bla HEK293T, TGF-beta/Smad beta-lactamase reporter, 5 h; activation: at 76.8 µM (top of the series) unless noted
In short: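 SBE-bla HEK293T cells plated overnight, then compound exposure for 5 h at 37 C. Beta-lactamase reporter read with LiveBLAzer B/G FRET substrate after 2 h at room temperature, fluorescence at 405 nm excitation, 460/530 nm emission.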

[12] = qHTS assay to identify small molecule agonists of the progesterone receptor (PR) signaling pathway - cell viability counter screen (AID 1346799; calls by dose curve; further: nearly all actives have a fitted effect of over 45% in size)
In short: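 Counter screen in the PR-UAS-bla HEK293T wells (2% charcoal-stripped FBS, 16 h compound exposure at 37 C) after the bla read. CellTiter-Glo added, 30 min at room temperature, luminescence read as cell viability.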

[13] = target: Progesterone receptor (Homo sapiens) (UniProt P06401); test: qHTS assay to identify small molecule agonists of the progesterone receptor (PR) signaling pathway (AID 1346784; calls by dose curve; further: nearly all actives have a fitted effect of over 30% in size); details: PR-UAS-bla HEK293T, beta-lactamase FRET ratio, 16 h; activation: at 92.4 µM (top of the series) unless noted
In short: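 PR-UAS-bla HEK 293T cells (beta-lactamase reporter under UAS) in 2% charcoal-stripped FBS, dosed with 23 nL compound after 6 hr, incubated 16hr at 37C. LiveBLAzer B/G FRET substrate added, fluorescence read after 2 hours.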

[14] = qHTS assay to identify small molecule agonists of the TGF-beta/Smad signaling pathway - cell viability counter screen (AID 1346829); further: nearly all actives have a fitted effect of over 45% in size
In short: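 Here the cytotoxicity of library compounds is measured in SBE-bla HEK 293T cells treated for 5 hr, using CellTiter-Glo added to wells already read for the beta-lactamase reporter.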

[15] = target: Estrogen receptor (Homo sapiens) (UniProt P03372); test: qHTS assay to identify small molecule agonists of the estrogen receptor alpha (ER-alpha) signaling pathway in the presence of an antagonist (AID 1259383; calls by dose curve; further: nearly all actives have a fitted effect of over 15% in size)
In short: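 Cells are hormone-deprived for 5 days (charcoal-stripped FBS, no phenol red), plated for 24hr, spiked with 10.0nM ICI-182,780, then dosed at 15 concentrations. After 22hr at 37C, ONE-Glo luminescence reports ERE-luciferase activity.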

[16] = activity, negative = inhibition: at 92.4 µM (top of the series) unless noted
Potency means the concentration at half of the fitted maximal effect; tags describe the fitted curve by direction and shape or compound fluorescence and quenching.

Sequence of UniProt Q92731 (Q92731 whole entry, looked up): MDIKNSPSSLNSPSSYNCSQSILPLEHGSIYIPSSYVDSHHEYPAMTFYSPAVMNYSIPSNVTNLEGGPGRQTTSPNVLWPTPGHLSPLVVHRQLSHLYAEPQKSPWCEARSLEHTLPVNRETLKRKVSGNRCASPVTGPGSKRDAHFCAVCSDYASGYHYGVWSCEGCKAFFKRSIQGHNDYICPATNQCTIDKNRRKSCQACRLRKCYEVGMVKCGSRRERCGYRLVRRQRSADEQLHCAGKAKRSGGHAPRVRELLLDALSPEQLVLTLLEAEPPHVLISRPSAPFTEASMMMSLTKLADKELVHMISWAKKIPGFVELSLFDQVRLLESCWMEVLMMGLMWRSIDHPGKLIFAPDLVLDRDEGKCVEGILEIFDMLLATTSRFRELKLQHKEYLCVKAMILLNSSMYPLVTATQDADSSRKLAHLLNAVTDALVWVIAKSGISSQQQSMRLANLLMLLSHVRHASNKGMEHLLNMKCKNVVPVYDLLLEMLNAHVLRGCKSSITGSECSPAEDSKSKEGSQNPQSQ
Sequence of UniProt P16473 (P16473 whole entry, looked up): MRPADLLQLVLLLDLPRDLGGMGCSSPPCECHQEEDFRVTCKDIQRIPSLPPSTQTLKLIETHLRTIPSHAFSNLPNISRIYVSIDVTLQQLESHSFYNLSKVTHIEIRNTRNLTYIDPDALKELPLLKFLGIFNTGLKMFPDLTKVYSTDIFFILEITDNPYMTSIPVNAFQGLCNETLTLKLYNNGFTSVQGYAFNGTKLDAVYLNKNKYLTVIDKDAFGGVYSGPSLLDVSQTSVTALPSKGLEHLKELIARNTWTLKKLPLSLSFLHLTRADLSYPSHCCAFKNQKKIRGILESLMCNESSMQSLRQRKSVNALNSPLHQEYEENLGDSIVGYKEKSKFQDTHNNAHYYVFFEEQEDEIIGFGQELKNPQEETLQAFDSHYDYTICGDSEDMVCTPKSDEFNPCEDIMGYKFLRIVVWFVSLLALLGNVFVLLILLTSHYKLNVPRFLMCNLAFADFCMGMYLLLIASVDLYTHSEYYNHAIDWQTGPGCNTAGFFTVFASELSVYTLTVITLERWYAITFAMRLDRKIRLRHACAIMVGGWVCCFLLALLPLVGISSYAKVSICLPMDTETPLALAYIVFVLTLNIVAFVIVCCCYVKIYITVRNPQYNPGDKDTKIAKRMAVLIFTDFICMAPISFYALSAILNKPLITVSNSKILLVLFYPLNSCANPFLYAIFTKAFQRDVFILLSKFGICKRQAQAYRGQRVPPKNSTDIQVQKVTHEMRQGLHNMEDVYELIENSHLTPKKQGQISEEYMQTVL
Sequence of UniProt P06401 (P06401 whole entry, looked up): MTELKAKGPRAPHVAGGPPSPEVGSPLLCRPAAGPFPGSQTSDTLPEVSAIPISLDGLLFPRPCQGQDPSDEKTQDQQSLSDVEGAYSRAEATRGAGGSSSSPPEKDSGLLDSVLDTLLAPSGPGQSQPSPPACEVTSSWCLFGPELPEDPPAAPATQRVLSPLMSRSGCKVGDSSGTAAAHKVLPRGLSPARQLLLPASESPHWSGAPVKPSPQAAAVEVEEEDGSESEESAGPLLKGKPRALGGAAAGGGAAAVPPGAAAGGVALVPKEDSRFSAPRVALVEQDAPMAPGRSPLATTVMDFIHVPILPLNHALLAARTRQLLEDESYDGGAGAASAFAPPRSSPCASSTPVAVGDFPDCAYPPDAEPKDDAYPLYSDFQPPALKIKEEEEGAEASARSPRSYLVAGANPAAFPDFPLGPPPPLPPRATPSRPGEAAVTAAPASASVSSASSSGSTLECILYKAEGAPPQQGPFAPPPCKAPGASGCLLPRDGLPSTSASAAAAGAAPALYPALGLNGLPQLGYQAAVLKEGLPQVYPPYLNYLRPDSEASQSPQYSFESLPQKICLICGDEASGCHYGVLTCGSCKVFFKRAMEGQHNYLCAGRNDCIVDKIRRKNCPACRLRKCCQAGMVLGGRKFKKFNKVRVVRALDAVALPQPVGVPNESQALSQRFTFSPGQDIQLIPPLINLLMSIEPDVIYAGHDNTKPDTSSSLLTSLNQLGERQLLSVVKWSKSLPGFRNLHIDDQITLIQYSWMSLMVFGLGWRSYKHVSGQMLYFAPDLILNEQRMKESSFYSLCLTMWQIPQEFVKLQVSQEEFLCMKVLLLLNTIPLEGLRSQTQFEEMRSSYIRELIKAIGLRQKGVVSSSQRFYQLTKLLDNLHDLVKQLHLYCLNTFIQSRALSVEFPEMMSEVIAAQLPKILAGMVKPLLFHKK
Sequence of UniProt P03372 (P03372 whole entry, looked up): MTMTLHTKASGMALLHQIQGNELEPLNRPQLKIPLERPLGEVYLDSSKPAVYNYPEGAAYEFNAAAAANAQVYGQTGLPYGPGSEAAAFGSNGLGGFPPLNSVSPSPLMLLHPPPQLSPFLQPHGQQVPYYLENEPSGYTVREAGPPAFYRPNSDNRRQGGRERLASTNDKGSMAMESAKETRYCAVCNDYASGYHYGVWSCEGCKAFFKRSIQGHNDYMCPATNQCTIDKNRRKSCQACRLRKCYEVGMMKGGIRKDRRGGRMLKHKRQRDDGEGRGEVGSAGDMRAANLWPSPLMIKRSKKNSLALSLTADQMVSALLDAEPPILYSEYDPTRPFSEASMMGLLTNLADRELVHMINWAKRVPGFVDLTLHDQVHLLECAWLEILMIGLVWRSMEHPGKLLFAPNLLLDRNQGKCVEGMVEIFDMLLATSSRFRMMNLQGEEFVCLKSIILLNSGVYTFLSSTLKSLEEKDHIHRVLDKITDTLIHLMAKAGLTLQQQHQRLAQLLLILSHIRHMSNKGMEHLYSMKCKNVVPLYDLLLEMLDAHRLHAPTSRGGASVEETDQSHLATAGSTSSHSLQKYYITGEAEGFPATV

For `Nc1ccc(O)c(N)c1`, the activity, negative = inhibition [1, 16] was inconclusive: -26.4%, the activity, negative = inhibition ([1]; at 92.4 µM (top of the series)) was inactive: 8.68% and the cAMP activity change [2] was inconclusive: -6.98% and inconclusive: -2.52%. For the same molecule, the Potency [3] was inconclusive: 24.2 µM [partial curve], the activity change, negative = inhibition [3] was inconclusive: -4.5% and the Potency [4] was active: 60.7 µM and active: 54.5 µM. For the same molecule, the Potency [5] was “inactive” and the activity, negative = inhibition [6] was inconclusive: 0.366% and inconclusive: 12.5%.

With `CC(C(O)c1ccccc1)N(C)CCOC(c1ccccc1)c1ccccc1` (stereo unspecified) the Potency [1, 16] was inconclusive: 15 µM [rising, full curve, poor fit], the Potency [7] was active: 29.8 µM and the Potency [8] was active: 29.8 µM. For the same molecule, the Potency [9] was active: 18.8 µM, the Potency [3] was inconclusive: 26.6 µM [falling, partial curve] and the Potency [5] was active: 23.7 µM. For the same molecule, the Potency [10] was inconclusive: 26.6 µM [cytotoxic, partial curve], the Potency [11] was inconclusive: 13.4 µM [rising, partial curve] and the Potency [6] was inconclusive: 16.9 µM [rising, partial curve, poor fit].

In the case of `Nc1ccc(S(N)(=O)=O)cc1`, the activity, negative = inhibition [1, 16] is reported as inconclusive: -24.6%.

For `CCC(=O)O[C@H]1[C@H](O[C@@H]2[C@@H](C)[C@H](O[C@H]3C[C@@](C)(OC)[C@@H](O)[C@H](C)O3)[C@@H](C)C(=O)O[C@H](CC)[C@@](C)(O)[C@H](O)[C@@H](C)C(=O)[C@H](C)C[C@@]2(C)O)O[C@H](C)C[C@@H]1N(C)C`, the activity, negative = inhibition [1, 16] was inconclusive: -33.3% [at 42.5 µM], the activity, negative = inhibition ([1]; at 42.5 µM (top of the series)) was inactive: 2.81% and the Potency [7] was inconclusive: 45.5 µM [cytotoxic]. The Potency [9] was active: 32.2 µM and the Potency [12] was active: 14.4 µM.

In the case of `CCCCC1C(=O)N(c2ccccc2)N(c2ccc(O)cc2)C1=O` (stereo unspecified), the Potency [1, 16] is reported as inconclusive: 29.8 µM [partial curve], the Potency [7] is reported as inconclusive: 21.1 µM [cytotoxic, partial curve] and the Potency [9] is reported as active: 29.8 µM. The activation [13] was inconclusive: -18.2% [at 42.5 µM], the Potency [5] was inconclusive: 21.1 µM [partial curve] and the Potency [10] was inconclusive: 33.5 µM [cytotoxic, single point]. For the same molecule, the Potency [12] was inconclusive: 33.5 µM [cytotoxic, single point], the Potency [14] was inconclusive: 30.1 µM [cytotoxic, single point] and the Potency [11] was inconclusive: 26.8 µM [rising, single point]. For the same molecule, the activity, negative = inhibition [6] was inconclusive: -3% [at 35.3 µM].

For `CC(=O)[C@H]1CC[C@H]2[C@@H]3CC=C4C[C@@H](O)CC[C@]4(C)[C@H]3CC[C@]12C`, the Potency [1, 16] was active: 1.88 µM, the activity, negative = inhibition [1, 16] was inconclusive: -62.8% and the Potency [8] was inconclusive: 13.7 µM [cytotoxic, partial curve] and inconclusive: 9.44 µM [cytotoxic, full curve]. The Potency [13] was active: 4.85 µM and inconclusive: 4.22 µM [activator, full curve, poor fit], the activity change, negative = inhibition [5] was inconclusive: -8.19% [at 42.5 µM] and the Potency [12] was “inactive”. The activity, negative = inhibition [6] was inconclusive: -0.907%.

In the case of `O=C(/C=C/C=C/c1ccc2c(c1)OCO2)N1CCCCC1`, the Potency [1, 16] is reported as inconclusive: 61.3 µM [inhibitor], the activity, negative = inhibition [1, 16] is reported as inconclusive: -47.3% and the Potency [8] is reported as inconclusive: 7.71 µM [cytotoxic, full curve] and inconclusive: 9.69 µM [cytotoxic, full curve]. The Potency [2] was inconclusive: 54.5 µM [falling, partial curve, poor fit], the Potency [3] was inconclusive: 77.1 µM [falling, single point] and the Potency [4] was inconclusive: 48.7 µM [cytotoxic, partial curve, poor fit] and inconclusive: 54.5 µM [cytotoxic, partial curve]. The Potency [5] was inconclusive: 54.6 µM [falling, partial curve] and inconclusive: 61.1 µM [falling, partial curve].

With `COc1cc(OC)cc(OC)c1` the Potency [1, 16] was “inactive”.

In the case of `Nc1ccc(N=Nc2ccccc2)c(N)n1`, the Potency [1, 16] is reported as inconclusive: 68.9 µM [inhibitor, single point] and active: 54.5 µM, the activity, negative = inhibition [1, 16] is reported as inconclusive: -32.4% [at 42.5 µM] and the Potency [7] is reported as active: 48.8 µM and active: 30.6 µM and active: 15 µM. The Potency [8] was inconclusive: 4.88 µM [cytotoxic, full curve] and inconclusive: 3.44 µM [cytotoxic, full curve, poor fit] and inconclusive: 4.22 µM [cytotoxic, full curve], the Potency [15] was inconclusive: 8.68 µM [activator, partial curve, poor fit] and active: 1.93 µM and active: 3.76 µM and the Potency [13] was inconclusive: 68.9 µM [cytotoxic, single point]. The activation [13] was inconclusive: 0.933% and the activity, negative = inhibition [6] was inconclusive: -6.36% and inconclusive: 5.87%.
